Some of the results follow.
test system: PF3D7_0420300 AP2 domain 1 (GST-tagged); test: gcPBM binding intensity (ln(normalized median fluorescence intensity)); higher = stronger DNA binding
In short: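 In this array assay, P. falciparum DNA-binding domains with a GST tag, expressed in E. coli, were applied for 1 h to primer-extended double-stranded 36-bp intergenic genomic probes and negative controls on an Agilent 4 × 180k array. Bound protein was visualised with Alexa488 anti-GST antibody at 488 nm. Binding intensity is the highest Masliner-normalised natural-log median intensity across replicate spots of either probe orientation.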

Sequence | gcPBM binding intensity (ln)
ATAATAAAATGGAGAGTGCATACATGTTTATTTTAT | 9.48
GTACACTAATTATGTGCACACAAATTAAAGGTCTAC [CACACA_site146] | 9.57
AGATATATTATTAGGTGTACTATAAAATAAATTCAC [XGTACX_site221] | 9.24
CGAACAAACAAATAAACACACAAAAAAAGATATATA [CACACA_site6944] | 9.72
AAAAAAAATTAGGAAACATGCATGTCCCGATAAATA [TGCATGCA_site149] | 9.29
AGGGAATAATATTAATGTACATATATGAACTTGTTT [XGTACX_site6089] | 9.43
TCTTTTAAAAATTAAGTGCATGTCCTTATAACAAAA | 8.88
TATAAAAAGGAAAAATAAAAATAAAAATAAAAATTA [CACACA_negctrl_site1822] | 9.18
AAAAAAATAATGTACACACACATATCTGTTTATATA [CACACA_site4270] | 9.73
ATATTTATATATATATGTACATATGTGTGTTTTTAT [XGTACX_site3956] | 9.61
ATATATAACTTTTCTTAACACACAAAAAACAAAAAT [CACACA_site8748] | 9.56
TCATAAACATTATGCACACAAAAATAAAAAAAAATA [CACACA_site1115] | 9.56
ATAAAATATATATGCACACACATATATATTTCATAC [CACACA_site3547] | 9.61
ACATAAAATAAATATACACACATATGTATATATTAT [CACACA_site3041] | 9.52
ATATATATATATATGTGTACTTATAAATATATCTGT [XGTACX_site4337] | 9.32
AAAAGAATTTAGAAGGCATGCACTTAAACATGGATA [TGCATGCA_site699] | 9.32
TAAATATTTTATTGTACACACTTTTTATGAATGATG [CACACA_site5694] | 9.36
AATATTTAAAACAAATCACACATGTATCCATAAATG [CACACA_site5308] | 9.37
ATATCCCATATGTAATGTACTTACACTTTCTTAATT [XGTACX_site7020] | 9.5
ATAATTTATATTCAGAAACACACGAAAAAAAAAAAT [CACACA_site1296] | 9.64
AACTAAACAAAAGTTACACACATCATACGATATTAT [CACACA_site3180] | 9.49
ACCATATAATTTTTTTGTACATAATGATTTTTTTTT [XGTACX_site1104] | 9.46
TATATTATATACGTCTGTACACAAATGAGAGGTAAA [XGTACX_site5538] | 9.25

Sequence | gcPBM binding intensity (ln)
ATGTTAAGAATAATTAGTACTTACATATGTATAATA [XGTACX_site4419] | 9.13
TTATAAAAAAAAAAAAAAAATATATATATATATATA [XGTACX_negctrl_site592] | 8.78
AATAATATATATTGTACACACAAAATGGGAAAAAAA [CACACA_site5100] | 9.73
AAAAAATAATAATAAAATGAATAGATATGTATTTAT [TGCATGCA_negctrl_site210] | 9.37
AACATATTATCTTGTGAAAATAATATAAGTCACATT [TGCATGCA_negctrl_site339] | 9.25
AGCAGAGTTACAATTTGTACGTAATTGATATAGATA [XGTACX_site4051] | 9.07
ATATATATATATATTTGTACAGAAAATATTTTAATA [XGTACX_site3706] | 9.15
ACAAAATGTAAATAAACACACATATATATATATATA [CACACA_site1281] | 9.3
AAGAAAAACTTTACGTGTACCAAACATCCTGCCGAC [XGTACX_site4895] | 9.59
TAAACCTTAAAATATTTCTCATGTTTAACTTATATT [GTGCAC_negctrl_site233] | 9.32
AAAAAATAATTGAAGTGTACGTACAATGATTTTACT [XGTACX_site7663] | 9.35
GTATTCTACAGACACATACACACATATATATATATA [CACACA_site3427] | 9.7
TTATAATATTGTGGTATACACACCTTACAAAAAGGT [CACACA_site2878] | 9.32
GGGAGAAATTTATACATACACACATATATATATTAT [CACACA_site4039] | 9.62
TGTTCTGAACGGTTCATGCACTTTTTTTTGTTAATT | 9.43
CTGTTTTTGTTTTAAAGTACATTGTTCAATATACAT [XGTACX_site5288] | 9.38
TTTATTTTCATATGAACACACATATATATATTATAA [CACACA_site2369] | 9.26
TTATATACCCTAATATGTTTTATTATTATTATATAT [TGCATGCA_negctrl_site6] | 9.53
TATATTCTACAAGAATTATGAATTGTCAGACCAAAT [CACACA_negctrl_site1101] | 8.98
TACAATGTGGATAATTGTACAAAACCGATAAGAGGG [XGTACX_site6453] | 9.54
ATATAAATAATATAAATACACACTAAAAAAAATATA [CACACA_site542] | 9.69
ATATTTACCATTGTATGTACATATATAAAATATATC [XGTACX_site3237] | 9.27
GTATATATATATATATGTACATATTTAGAGTTCTGT [XGTACX_site5357] | 9.29

Sequence | gcPBM binding intensity (ln)
AACATATACACGAACACACACACATATATATATATA [CACACA_site502] | 10.1
AAAACAAATGAGTACACACACATAAAAATTGAAAAT [CACACA_site199] | 10
TAAAGAAAAAAATGTTGTACTTTATGAAACATATTT [XGTACX_site412] | 9.07
AGTTTTTATTAAAACAAAATTTAATTATAACGTTGA [XGTACX_negctrl_site298] | 8.83
CGTAGCCCCACTAACACACACAAATATACTCAATCA [CACACA_site5587] | 9.6
TATATATATATATACACACATACATATATATATTTG [CACACA_site857] | 9.44
TTATATGTATGAACAAGTACATGCTATAATTATAAA [XGTACX_site1399] | 9.03
ATATATATATATATATGTACATATATACATATATGT [XGTACX_site1521] | 9.11
TTTTTTTTTTTTTGATGTACAATAATTAAAGAGTAA [XGTACX_site8403] | 8.8
AGTAGTCTGGAGAAGAGTACATAGTTTCTGGTAGCT [XGTACX_site2023] | 9.2
AATAACTATATATGTGTGCACAAAAATTTGACATAA | 9.62
TGCTTATCCATTTCTACACACAAAAAAAAAAAAAAA [CACACA_site37] | 9.24
TTATATTATAACAAACGTACGAATTTTATACAAATA [XGTACX_site7258] | 9.2
AAATGGGTTTATTTAACACACAAAAGAAAAAATATA [CACACA_site1938] | 9.53
TATATATATTTATGTTGTACAAAATATTATTACGTA [XGTACX_site5384] | 9.04
TATTTTTACAATGGTAGTACCATTTTGAATCTTTGT [XGTACX_site6092] | 9.18
CACCCGCACGTATTTGCACACATTGCCACGTAATTA [CACACA_site5786] | 9.71
ACACTATCTTAGATTTGTACATATTTATATATGTAT [XGTACX_site8739] | 9.42
TCGGTATCTGTTCAAAGTACACATTTGTATACAAAA [XGTACX_site1890] | 9.26
TATATAACATATGGGACACACATGCAACTGTTATAT [CACACA_site3792] | 9.61
AAAAATATTATGATGTTTATTAGAAAGGAAAAAACT [CACACA_negctrl_site1417] | 9.24
ATGTGATGTTATATATGTACTTATTTTTTAATAAGG [XGTACX_site1786] | 9.25

From the supplement of paper PMC11417369
